# Source: PubChem BioAssay AID504332 (National Center for Advancing Translational Sciences (NCATS), 2011)
# Among all 350,000 compounds or so, about 31,000 (8.9%) were called active. The shares of active, inactive and inconclusive entries below differ from those in the screen. The call rests on the fitted dose curve; in most records, active means well fitted inhibition curve with a large enough effect; inconclusive means small, poorly fitted or top-dose-only effect; inactive means no such curve, though single readings can be large or run the other way. A potency beside an inconclusive call is a rough fit, not a confirmed value.
# Target: Histone-lysine N-methyltransferase EHMT2 (Homo sapiens) (UniProt Q96KQ7)
# Test: qHTS Assay for Inhibitors of Histone Lysine Methyltransferase G9a; further: nearly all actives have a fitted effect of over 75% in size
# Settings: G9a H3K9 monomethylation, AlphaScreen, 2 h; activity, negative = inhibition: at 59 µM (top of the series) unless noted
# Outline: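 G9a (20 nM) preincubated 15 min RT with compounds, then 500 nM biotinylated H3K9 peptide and 20 uM SAM added; 2 h RT reaction. Monomethyl-H3K9 product detected by AlphaScreen with anti-H3K9me1 antibody, streptavidin donor and anti-rabbit IgG acceptor beads.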
# On the % scale 0 is the no-effect control and ±100 the full control effect; potency means the concentration at half of the fitted maximal effect; tags describe the fitted curve by direction and shape.
# UniProt Q96KQ7, sequence (Q96KQ7 whole entry, looked up): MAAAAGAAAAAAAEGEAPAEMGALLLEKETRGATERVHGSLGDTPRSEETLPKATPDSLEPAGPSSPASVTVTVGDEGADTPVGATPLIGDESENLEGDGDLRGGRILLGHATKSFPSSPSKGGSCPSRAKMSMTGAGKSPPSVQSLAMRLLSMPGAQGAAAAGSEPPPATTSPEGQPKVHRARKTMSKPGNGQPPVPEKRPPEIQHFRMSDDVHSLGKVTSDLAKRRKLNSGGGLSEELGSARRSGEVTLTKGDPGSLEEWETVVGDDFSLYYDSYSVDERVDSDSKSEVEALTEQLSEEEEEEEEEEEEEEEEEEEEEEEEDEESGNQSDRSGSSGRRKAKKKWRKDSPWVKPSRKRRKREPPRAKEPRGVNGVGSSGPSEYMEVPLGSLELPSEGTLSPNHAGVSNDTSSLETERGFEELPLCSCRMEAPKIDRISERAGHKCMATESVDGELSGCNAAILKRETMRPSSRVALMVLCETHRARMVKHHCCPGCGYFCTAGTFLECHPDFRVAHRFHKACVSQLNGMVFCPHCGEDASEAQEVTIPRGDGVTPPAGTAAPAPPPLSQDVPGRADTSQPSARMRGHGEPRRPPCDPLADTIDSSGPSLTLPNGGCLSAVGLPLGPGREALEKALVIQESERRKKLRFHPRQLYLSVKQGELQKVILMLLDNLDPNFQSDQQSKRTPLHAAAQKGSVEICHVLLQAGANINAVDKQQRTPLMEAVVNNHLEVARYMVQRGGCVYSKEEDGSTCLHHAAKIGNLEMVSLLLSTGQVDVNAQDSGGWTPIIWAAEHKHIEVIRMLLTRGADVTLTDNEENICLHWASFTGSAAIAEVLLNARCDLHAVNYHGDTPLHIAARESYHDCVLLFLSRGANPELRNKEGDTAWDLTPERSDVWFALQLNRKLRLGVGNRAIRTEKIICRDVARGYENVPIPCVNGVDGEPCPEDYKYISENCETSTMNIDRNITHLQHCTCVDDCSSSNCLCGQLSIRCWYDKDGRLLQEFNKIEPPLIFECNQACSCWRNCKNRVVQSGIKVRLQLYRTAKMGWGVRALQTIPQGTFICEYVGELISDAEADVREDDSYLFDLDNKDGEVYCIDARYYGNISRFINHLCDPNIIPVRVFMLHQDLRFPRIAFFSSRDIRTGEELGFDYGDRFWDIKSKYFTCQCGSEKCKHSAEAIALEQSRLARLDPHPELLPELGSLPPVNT
Compound,Potency,"activity, negative = inhibition"
CCOC(=O)NC(=O)/C(C#N)=C\Nc1sccc1C(=O)OC,"inconclusive: 39.8 µM [inhibitor, single point]",
O=[N+]([O-])c1cccc(/C=N/NC2=NCCCCC2)c1,,inactive: 1.4%
CC(Oc1ccc(C#N)cc1)C(=O)NC1CCCC1 (centres undefined),,inactive: 12.6% [at 0.501 µM]
Cc1cc(NC(=O)CSCC(=O)OCC(=O)Nc2cc(C)c(C)cc2[N+](=O)[O-])no1,"inconclusive: 50.1 µM [inhibitor, partial curve, poor fit]",
O=C(Nc1ccc(Br)cc1)c1cccnc1N1CCCCC1,"inconclusive: 50.1 µM [inhibitor, partial curve]",
CCN1CCN(C(CC(C)C)c2nnnn2CS(=O)(=O)c2ccc(C)cc2)CC1 (centres undefined),"inconclusive: 89.1 µM [inhibitor, single point]",
O=c1c2[nH]c3ccccc3c2ncn1Cc1cccnc1,,inactive: -17.6% [at 102 µM]
COCCNC(=O)/C(C#N)=C/C(C)=C/c1ccccc1,,inactive: 4.55%
Cn1c(SCc2ccc(Br)cc2)nc2c([nH]c3ccccc32)c1=O,,inactive: -0.0557%
Cc1cc(C(c2nnnn2Cc2ccccc2)N2CCOCC2)c(C)n1-c1ccc2c(c1)OCO2 (centres undefined),active: 39.8 µM,
Cc1cccc(COc2ccccc2/C=N/Nc2ccc([N+](=O)[O-])cc2)c1,active: 2.51 µM,
O=C(C1CCCC1)N1CCCC(Nc2ccc(F)cc2)C1 (centres undefined),"inconclusive: 31.6 µM [inhibitor, partial curve, poor fit]",
O=C(N=Nc1c(O)[nH]c2ccc(Br)cc12)c1cc(-c2cccc3ccccc23)n[nH]1,"inconclusive: 0.794 µM [inhibitor, full curve]",
Cc1cc(F)ccc1S(=O)(=O)Nc1ccc(C(=O)N2CCCCCC2)cc1,,inactive: 0.216% [at 12.7 µM]
Cc1ccc(OCC(=O)OCc2cc(=O)n3nc(C4CC4)sc3n2)cc1,,inactive: 11.3%
O=C1C2C3C=CC(C4CC34)C2C(=O)N1/N=C/c1ccc(-c2ccccc2[N+](=O)[O-])o1 (centres undefined),,inconclusive: -69.5% [inhibitor]
O=C(CSc1cccc[n+]1[O-])Nc1cccc(S(=O)(=O)NC2=NCCCCC2)c1,"inconclusive: 50.1 µM [inhibitor, partial curve, poor fit]",
CCOC(=O)c1cc(-c2cccnc2)nn1-c1ccccn1,"inconclusive: 50.1 µM [inhibitor, partial curve]",
CC(=O)c1c(C)[nH]c(C(=O)N2CCN(C(=O)c3ccco3)CC2)c1C,"inconclusive: 79.4 µM [inhibitor, partial curve, poor fit]",
Cc1cc(C)n(C(C)CC(=O)NCc2ccc(Cl)cc2)n1 (centres undefined),,inactive: 10.6%
COc1cccc(-c2cc(C(F)(F)F)nc(NCc3ccco3)n2)c1,"inconclusive: 39.8 µM [inhibitor, single point]",
C=CCN(CC=C)CCCOc1ccc(C)cc1OC,active: 25.1 µM,
CCOC(=O)c1c(Oc2ccc(C(C)=O)cc2)nnc(-c2ccccc2)c1-c1ccccc1,,inactive: -28.7%

Compound,Potency,"activity, negative = inhibition"
Cc1n[nH]c(C)c1CCC(=O)N/N=C/c1c(C)[nH]c2ccccc12,,inactive: 6.04% [at 102 µM]
CCOC(=O)C1=C(COC(=O)/C=C/c2ccc(C)o2)NC(=O)NC1C (centres undefined),"inconclusive: 10 µM [inhibitor, single point]",
CCOC(=O)Cn1c(=O)n(-c2ccccc2OC)c2nc(-c3ccc(C(C)C)cc3)nc(C(N)=O)c21,,inactive: 3.48%
Cc1c(C(=O)Nc2ccccc2Cl)oc2ccc(S(=O)(=O)N3CCC4(CC3)OCCO4)cc12,"inconclusive: 70.8 µM [inhibitor, single point]",
CCc1c(O)nc(SC2CC(=O)N(c3ccc(F)c(Cl)c3)C2=O)[nH]c1=O (centres undefined),"inconclusive: 79.4 µM [inhibitor, single point]",
COc1cccc(CNC(=O)c2cc(=O)[nH]c3ccc(S(=O)(=O)N4CCOCC4)cc23)c1,,inactive: 25% [at 12.7 µM]
Cc1ccc(-n2nc(C)c3c(C)c(CCC(=O)NCc4ccco4)c(C)nc32)cc1,"inconclusive: 89.1 µM [inhibitor, single point]",
COc1cc(/C=N/N2CCCCC2)cc([N+](=O)[O-])c1O,active: 50.1 µM,
C=C(C)CSc1nnc(-c2cccc(S(=O)(=O)N(C)C)c2)n1-c1cc(OC)ccc1OC,"inconclusive: 25.1 µM [inhibitor, single point]",
CC(=O)c1c(-c2ccccc2)c2ccccc2[nH]c1=O,,inactive: -27.3% [at 102 µM]
Cc1cccc(-c2nc(CSCC(=O)NCc3cccs3)c(C)o2)c1,"inconclusive: 6.31 µM [inhibitor, single point]",
CCCCn1c(-c2ccc(C(C)(C)C)cc2)nc2cc3[nH]c(=O)c(C(C)C)nc3cc21,"inconclusive: 100 µM [inhibitor, single point]",
COC(=O)c1ccccc1NC(=O)N1CCN(c2ccc(OC)cc2)CC1,active: 39.8 µM,
Cc1ccc(C(NC(=O)c2cccc(S(=O)(=O)N3CCN(C)CC3)c2)c2ccccc2)cc1 (centres undefined),,inactive: -0.248% [at 2.33 µM]
O=C(Nc1ccc2oc(-c3cccnc3)nc2c1)c1cccnc1,,inactive: 3.44%
NC(=O)Nc1cc(Cl)ccc1Cl,"inconclusive: 79.4 µM [inhibitor, partial curve, poor fit]",
C#CCOCCOCCOCCNc1nc(N2CCN(C(=O)[C@H]([C@@H](C)CC)n3cc(CCC(=O)O)nn3)CC2)nc(N2CCN(C(=O)[C@H](C)n3cc(CCCN=C(N)N)nn3)CC2)n1,"inconclusive: 79.4 µM [inhibitor, partial curve, poor fit]",
CCCCn1c(SCC(=O)c2ccc3c(c2)OCCO3)nnc1-c1ccco1,"inconclusive: 35.5 µM [inhibitor, single point]",
CN(C)c1ccc(NC(=O)CSC2=Nc3ccccc3C3=NC(CCC(=O)NCc4cccs4)C(=O)N23)cc1 (centres undefined),"inconclusive: 25.1 µM [inhibitor, single point]",
Cc1ccc(CS(=O)(=O)CCC(=O)NCCC2=CCCCC2)cc1,"inconclusive: 8.91 µM [inhibitor, single point]",
COc1cc(C(=O)c2c(C)c(CCC#N)n3ccccc23)cc(OC)c1OC,"inconclusive: 50.1 µM [inhibitor, partial curve, poor fit]",
CC(=O)c1ccc(NC(=O)c2ccccc2Sc2ncnc3sc(C)c(C)c23)cc1,active: 31.6 µM,
COc1ccc(C(=O)Nc2nc(-c3ccc(S(=O)(=O)N4CCOCC4)cc3)cs2)cc1,"inconclusive: 22.4 µM [inhibitor, single point]",

Compound,Potency,"activity, negative = inhibition"
O=C(Nc1ccccc1F)N1CCC(NC(=O)C23CC4CC(CC(C4)C2)C3)CC1,,inactive: 1.23% [at 102 µM]
Cc1cc(C)n(CC(=O)NNC(=O)C2CC(=O)N(Cc3ccccc3Cl)C2)n1 (centres undefined),active: 44.7 µM,
CC(C)(C)c1ccc(C(=O)OCC(=O)Nc2sc3c(c2C#N)CCC3)cc1,,inactive: -4.49% [at 102 µM]
CC(Sc1ncnc2sc(-c3ccccc3)cc12)C(=O)N1CCNC1=O (centres undefined),"inconclusive: 7.94 µM [inhibitor, full curve, poor fit]",
O=C(CCOc1ccccc1)Nc1ccccc1F,,inactive: -0.706% [at 102 µM]
CCOC(=O)COc1ccc(C)cc1C(=O)c1ccn2nc(-c3ccc(F)cc3)cc2n1,,inactive: 6.46%
CCOc1ccccc1OCC(=O)NNC(=S)NC1CCCCC1,"inconclusive: 50.1 µM [inhibitor, partial curve, poor fit]",
Cc1c(S(=O)(=O)Nc2ccc3c(c2)OCCO3)c(=O)n(C)c(=O)n1C,"inconclusive: 79.4 µM [inhibitor, partial curve, poor fit]",
O=C(CSc1nc2ccccc2c2nc3ccccc3n12)NCc1ccco1,"inconclusive: 20 µM [inhibitor, partial curve, poor fit]",
CCOC(=O)C1=C(CN2CCN(C(=O)c3ccco3)CC2)NC(=O)NC1c1ccc(F)cc1 (centres undefined),,inactive: 14.3% [at 102 µM]
N#CCCN(C(=O)COC(=O)c1cc2ccccc2oc1=O)c1ccccc1,,inactive: 0.941%
O=C(N/N=C/c1ccc(Br)cc1)c1cc[n+](Cc2ccccc2)cc1,"inconclusive: 39.8 µM [inhibitor, single point]",
COc1cccc(CN2CCNC(=O)C2CC(=O)N(C)C2CCOCC2)c1 (centres undefined),"inconclusive: 56.2 µM [inhibitor, single point]",
COc1cccc(C(=O)Nc2cccc(C(=O)OCc3cc(=O)n4c(C)csc4n3)c2)c1,,inactive: 7.37%
CCOc1ccc2c(c1)n([O-])c1c([n+]2=O)CCCC1,"inconclusive: 3.55 µM [inhibitor, partial curve, poor fit]",
COc1ccc(CN2CCNC(=O)C2CC(=O)NC2CCCC2)c(C)c1C (centres undefined),active: 44.7 µM,
CCn1cc(C(=O)O)c(=O)c2cc(F)c(N3CCN[C@@H](C)C3)c(F)c21,,inactive: -33.9% [at 12.7 µM]
Cc1onc(-c2ccccc2)c1C(=O)Nc1ccc(S(=O)(=O)N2CCOCC2)cc1,active: 50.1 µM,
O=c1c2ccccc2nc(-c2ccco2)n1Cc1ccccc1,"inconclusive: 39.8 µM [inhibitor, single point]",
CCOc1ccc(OCCNC2CCCC2)cc1,,inconclusive: -97.3% [inhibitor]
CC(=O)Nc1ccc(-n2c(C)ccc2-c2ccccc2)cc1,"inconclusive: 79.4 µM [inhibitor, single point]",
COc1cc(C2C(C(=O)c3ccc(C)o3)=C(O)C(=O)N2c2cc(C)on2)cc(Br)c1O (centres undefined),,inconclusive: -101% [inhibitor]
Cc1[nH]c2ccccc2c1CCN(Cc1cccnc1)C(=S)NC(C)(C)C,"inconclusive: 89.1 µM [inhibitor, partial curve, poor fit]",
